Drawing on paper PMC10726135, this text covers binding signal (log2 normalized intensity) for 93 sequences.

The other results are listed elsewhere or left out. At the low end of the ranking the order means little. The protein was read in a cell extract, so binding may be indirect.

In the test the target is T1, HNF4alpha2 (COS-7 nuclear extract) (UniProt P41235).
T1 sequence: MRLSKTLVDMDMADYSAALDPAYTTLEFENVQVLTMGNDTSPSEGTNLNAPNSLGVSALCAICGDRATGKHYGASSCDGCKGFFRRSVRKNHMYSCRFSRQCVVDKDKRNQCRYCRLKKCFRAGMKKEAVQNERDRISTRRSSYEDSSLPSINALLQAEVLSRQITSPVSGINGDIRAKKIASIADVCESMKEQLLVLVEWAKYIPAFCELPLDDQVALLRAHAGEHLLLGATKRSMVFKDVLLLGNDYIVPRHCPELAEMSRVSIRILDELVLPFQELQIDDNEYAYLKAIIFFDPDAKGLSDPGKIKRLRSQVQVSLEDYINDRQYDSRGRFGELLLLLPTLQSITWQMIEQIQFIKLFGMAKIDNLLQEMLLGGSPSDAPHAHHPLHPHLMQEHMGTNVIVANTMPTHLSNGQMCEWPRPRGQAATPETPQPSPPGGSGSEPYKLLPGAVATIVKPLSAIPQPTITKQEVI
As to the kind of experiment: protein-binding microarray. As to conditions: COS-7 nuclear extract on double-stranded Agilent 4x180k PBM; binding buffer, salt, pH and temperature not given; high values mean tight binding; double strand, one strand shown; sequences stand for … in …GCCTAGGGAGATTAGAGTATCGGTCGA
As to TAGGGCCCATGCCCTTAGCCACTGCATGAT, the binding signal (log2 normalized intensity) was -1.03.
The result for GCTGTGTGGCATGGTGTTTTGCCTTACACA reads 0.593; that for TGAACTGACTGGGGTTAACGTCCAAAGGTA, 2.67; that for CTTTGAGCATCGCTGGACTCTGCTCCTAAG, 3.81.
The result for ATACTGCCTTTCTAGAACCAGAATTCCAGA reads -1.08; that for ATTCTTGTCAATGACCCTAATGGGGTACTT, 1.65; that for GGCTGTGAAATATTTGAGTTCTTCAAGTCA, 1.24.
In the case of TCAGACAAGTTGCAGGGATGGACTTTAATC, the binding signal (log2 normalized intensity) is 6.09.
The result for CCTTTGAGATAGCTATGATTATCCTTATCT reads 0.316.
Regarding GAGTGTATAGTGGCACTGTTATGACCCATT, the binding signal (log2 normalized intensity) stood at 2.32.
The result for AGGAAACTCTTTCCTAACAGTGAATGTTTC reads 0.887; that for ATGGGCCCCAGTAAAAACAGTGGGCCTTAA, -1.11.
Next, AGATAAAAAGGCTAGAGCGCGCTGGAATCT: -1.11; ACTTGAAGACATTCCAAGAAGAGCCAATAG: -1.17.
The result for GCTGCTCAGTTTAAGTCAAAATATAAGGTC reads 1.12.
As for GAGGACTTTGATCAGCAATGGAGAGTGATC, the binding signal (log2 normalized intensity) amounted to 2.33.
With CCTAAACAGCAACTGTAGTGCATAGTGGGT, the binding signal (log2 normalized intensity) came out at 1.19.
Next, ACTGTCTAGCTGTGTAACCCTGGACAAGTT: -0.0459; CCAGTCTAGGTCTGGAAGGAAGGAGGGAGG: -1.06.
Next, ACACTCAAGGCAAGAGAGTCATAAAGGGCA: -0.815; GTGCAATAACACCTATGTGCAAAATACCTG: -1.07.
The result for ATATCCTTTAGCTCCTGGGCCCAGATATAC reads 0.196; that for TTAGAGCTGGGGCACAATGCTGCAATTCTC, -1.17; that for TGCACTTTGCCCTCTCTTCAGCACCTTTTA, 4.51.
GGTCAATATTTTCTTTGTGCTATTTTTGGC: the binding signal (log2 normalized intensity) is 1.61.
Next, GGCCCTCACGTGGCCCTGGCATTTGGCTCA: -1.22.
Next, TTAATGTGCTTGTCTGACTGCTGCCAAAGG: -0.631.
TTCCCTCCTCTTCCCTACCCCCTGGGAGTA: the binding signal (log2 normalized intensity) was determined as 4.05.
The result for TCTATCTGTATTCTGAAGCCCTACAGCCCA reads -0.864; that for AGCAGCATTGGACCCTCCCAGCCAAACCCC, 4.34; that for TGAGAGCAGAGGCTGGGGCCCTCTTCCAGC, -1.02.
The result for CAGTGTCAGGACCTTGCTCCTGTTCCTTTG reads 1.49.
The result for ACTGGCCCAGCGGATTAATATCCAGAGGCT reads -1.13.
As to CATTGATAATTCAGTTTCATTGCACTTTGC, the binding signal (log2 normalized intensity) stood at 4.01.
The result for CTGGAACCATCAGGATTCCAGAGGAAGCAG reads -1.08; that for TATTGAACAAAGATTGCTTGCCAGTTCCCT, -1.03; that for ACTTAGGATCAGTAGCATTATCTCCTTGCT, -1.02.
The result for TTTGTGATTACATTGAGTCCACTGAGATCA reads 1.31; that for AAATGGAACAGTAAGTGTTAATGGCACTTC, 0.382.
The result for TTCCACCTTTGCCCTCCAAACTGAGAGATT reads 2.62; that for GAAACATGCGATACTTGACCTGCAATGAAA, -0.0692; that for TGCTTTGGGTGGATTTGGAGATCAGAGTCC, 3.16.
For AATGATAAGATATATGACTCTAGATTGTTT, the binding signal (log2 normalized intensity) was 0.662.
In the case of AGGCTTTAGATAAGGTATGTGGGAGCGGGG, the binding signal (log2 normalized intensity) was -0.539.
GAGAGCAAGGGGGAAGCTGCTAATTGCTTG: the binding signal (log2 normalized intensity) was -1.1.
As for CCTATGTCTACGTCTTGTCTCTTTTGTCCA, the binding signal (log2 normalized intensity) worked out at 2.04.
Next, GTTGCACTCACTAGCATTAGGACCTGTTTG: 0.396.
On to GCTGTTACTCTAGTACTAGGCAGCATAGGG, for which the binding signal (log2 normalized intensity) is -1.07.
The result for CCCTACTGTACCCTATGCACCCCACAGTGC reads 2.11.
With TGAGACATGAATCCATCCCACCTCACTTAT, the binding signal (log2 normalized intensity) worked out at 1.78.
The result for TATGTTAGACCAGCCAATTCTACTGGAAGT reads 0.295; that for TCTTCAGGAGGCACTGATAAGCGTATTTCA, -0.599.
Next, TGGAATGCAAGACCTCAGCCCTCAGGGGCC: -1.15.
With ACCCACCCACCTATGTCCTTATCCTCATTG, the binding signal (log2 normalized intensity) came to 0.843.
Next, CATAGATCCCACCATTCCCAGTTGTCTGAT: 1.06; CCTGACCCCCAGTGGAATGTGCCCTTTGAC: 4.95.
Consider ACAGCAACTGTAGTGCATAGTGGGTTTCGG, for which the binding signal (log2 normalized intensity) is 0.973.
As to GTCCATGCTATTAAGCACTAGAAAGTCTTG, the binding signal (log2 normalized intensity) was -0.97.
The result for GGTGGCTCCCCCAGGCGACTGGGCCAGGAG reads -0.383; that for AAGCTAAATACCCTCTTTAGGGTAGCCTGG, 0.376; that for ACCAGGGAAATTACCCTCTAATGGTATTCA, -0.623.
The result for AGGAATGCTATCTAGCATGACAAGAATACG reads -1.16; that for TCAACTGTTGTGGACCACGTGGCTAGATTG, 1; that for AGCCCTTATATCCACATGGGTCCAAAGTTC, 8.54.
Next, ATGGCACAGAGGAGGGACGACTTACTTTTA: -1.1.
Consider GCCCGAGCTGTGCGGTAGGCATTGAGGCAG, for which the binding signal (log2 normalized intensity) is -1.19.
Next, TCTCCGCTGGCCTGTCTCCTGGCCTATTGT: 1.44; AGTGACGTGCAGAGGAGCAACTCATTCACT: -1.08.
Turning to AGAGATGTCAGCCCAAGATAACCTCCCCTC, the binding signal (log2 normalized intensity) turned out to be 3.82.
The result for TAGAGTAACCATTCTTTCTGAGAAAAGCTG reads -0.984.
Next, CACCCTTCTATCCCCTTATCTAAATGGAGT: 1.74; TGAATAAACAAATAATGGCTTTTGCCCTCA: 3.4; TTTCTGTTTGTCTTACTGTGTTGTCGTATT: 2.64.
The result for TTTTTTTTTTTTTAACGGTCTGCCCTCTTG reads 3.2.
AGGCCCCAACATTCCAGAGAAGCACATCCA: the binding signal (log2 normalized intensity) was -1.03.
Turning to ATCAAGGATTTTTTCTTGGACTTTGGTCAT, the binding signal (log2 normalized intensity) worked out at 8.1.
Next, CTGGGGCCCCACTGGGGTGGAGATGCCGTC: -1.13; GAGCAGCTGGTGGAGGCGGTGCCATTCACA: -1.21.
In the case of TCAGAAGTCCAACATTAGTATCACTGTGAA, the binding signal (log2 normalized intensity) turned out to be 1.29.
The result for CTGCTGTTGCACCTCTTATCAAGCGTGCAC reads -0.441.
Next, GGGCCGGGAAACGCCCTCGGCGCGCACCCA: -1.17; GCCTGTTTCCCTAGCTTATATCCCCTGCCT: 2.53; AAGGTCAGGATCTCAGCCGCGCGGCTTCAG: -0.906.
Next, GTCGCAGAAAACACAGAGATCTGATCAAAG: -1.12.
Turning to TTCAAGGAATGCAGCTCAGACTGCTTCTCT, the binding signal (log2 normalized intensity) is -1.02.
For ACTTTGATAGGCACAATCAGCAAACACAGA, the binding signal (log2 normalized intensity) is -1.19.
As for GCTGCTGAAACATTCAACTGACACTTGTTT, the binding signal (log2 normalized intensity) was determined as 0.226.
As to GCCTTATACAACCTCTGTAATAACTGCAGT, the binding signal (log2 normalized intensity) was 0.323.
Next, GAATGTGGGAAGCTGGCACAGCAGATGCTG: -1.05; AGATAAACATGAAACAGTCACAGTTATCAG: -1.05; TTAAATAGCTCATTAAGCTTAGCGTTATCA: -0.66.
Next, ACACAATATTGACATTCCAGCCTCCAGCTA: -1.16; CCACCCCCTCTCCTCCCTCGGCCGGCCCGG: 4.59.
